Results from article doi:10.1101/2025.07.07.663466 (bioRxiv, 2025).

Target: the molecule itself
Assay: native gel or EMSA

B1: recombinant E. coli GroEL (natural protein)
chain: not shown
Q: Which “stoichiometry N” value does the source give for B1 here?
A: 14
